Data on 86 molecules can be found in publication PMC4336329 (PLoS ONE, 2015).

The whole screen tested about 310,000 compounds, of which about 14,000 (4.5%) showed an effect of 50% or more. The effect is printed as a negative number. The list shows a part of the results.
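Also: peak tail current of the secondary pulse compared with the same well before compound.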

Chain of human ether-à-go-go-related gene (hERG) potassium channel (Q12809 whole entry, looked up): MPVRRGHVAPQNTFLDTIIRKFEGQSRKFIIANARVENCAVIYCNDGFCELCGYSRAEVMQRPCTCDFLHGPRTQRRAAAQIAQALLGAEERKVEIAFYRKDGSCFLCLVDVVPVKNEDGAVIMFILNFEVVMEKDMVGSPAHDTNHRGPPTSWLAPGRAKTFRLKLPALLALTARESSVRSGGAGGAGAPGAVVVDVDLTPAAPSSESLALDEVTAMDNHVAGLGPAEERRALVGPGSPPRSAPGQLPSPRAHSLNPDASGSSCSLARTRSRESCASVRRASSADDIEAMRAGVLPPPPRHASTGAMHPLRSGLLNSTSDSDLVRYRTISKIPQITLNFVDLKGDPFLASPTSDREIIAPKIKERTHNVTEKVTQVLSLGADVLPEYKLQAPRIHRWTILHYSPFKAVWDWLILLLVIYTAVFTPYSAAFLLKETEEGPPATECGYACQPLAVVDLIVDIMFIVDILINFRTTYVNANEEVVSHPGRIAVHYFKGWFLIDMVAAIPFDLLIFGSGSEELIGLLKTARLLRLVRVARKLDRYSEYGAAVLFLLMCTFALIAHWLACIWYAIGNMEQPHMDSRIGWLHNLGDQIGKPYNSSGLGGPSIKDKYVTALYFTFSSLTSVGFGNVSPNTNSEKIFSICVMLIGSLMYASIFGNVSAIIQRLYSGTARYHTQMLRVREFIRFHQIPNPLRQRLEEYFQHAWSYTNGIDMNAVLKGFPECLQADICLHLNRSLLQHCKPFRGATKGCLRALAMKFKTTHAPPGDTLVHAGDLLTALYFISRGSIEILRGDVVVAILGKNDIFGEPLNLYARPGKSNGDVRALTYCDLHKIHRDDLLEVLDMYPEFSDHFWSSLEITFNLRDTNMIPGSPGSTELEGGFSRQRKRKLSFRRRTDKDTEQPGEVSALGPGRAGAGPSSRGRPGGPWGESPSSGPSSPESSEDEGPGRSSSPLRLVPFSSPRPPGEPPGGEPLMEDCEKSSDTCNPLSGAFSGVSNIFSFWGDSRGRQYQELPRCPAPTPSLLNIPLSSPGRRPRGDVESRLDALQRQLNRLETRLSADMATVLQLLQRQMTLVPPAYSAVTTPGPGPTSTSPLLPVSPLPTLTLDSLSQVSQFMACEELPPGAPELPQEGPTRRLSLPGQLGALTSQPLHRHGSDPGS

The assay concerns the target human ether-à-go-go-related gene (hERG) potassium channel (human, UniProt Q12809). As to the kind of experiment: primary screen, population patch clamp on CHO cells stably expressing hERG.
In the case of `O=C1OC(c2ccco2)=N/C1=C\c1ccc(-c2cccc(C(F)(F)F)c2)o1`, the “hERG current change (%, negative = inhibition) at 10uM” value was -3.62%.

`COc1cc(NC(=O)CSc2c3c(nc4ccccc24)CCC3)cc(OC)c1OC`: the “hERG current change (%, negative = inhibition) at 10uM” value is listed as -7.51%. The same measure for `CCCSc1nnc(CNS(=O)(=O)c2ccc(C)cc2)n1C`: 8.4%; for `O=C(CN1C(=O)C2C3CCC(C3)C2C1=O)OCC(=O)c1ccccc1` (centres unmarked): 13%.

Consider `COc1ccc(NC(=O)CSc2nc3ccccc3c(=O)n2CCCN2CCCCC2)c(OC)c1`, for which the “hERG current change (%, negative = inhibition) at 10uM” value was -65.7%. The result for `O=C(Oc1ccc(F)cc1)c1cccnc1` reads 17.1%. The same measure for `N#Cc1ccc2ccn(CC(=O)NC3CCCCC3)c2c1`: 4.53%; for `C=CCn1c2c(c(=O)[nH]c1=S)CN(C(C)c1ccccc1)CN2` (centres unmarked): 21.6%. The result for `CC(=O)NC(CC(=O)c1ccc([N+](=O)[O-])cc1)C(Cl)(Cl)Cl` (centres unmarked) reads -18.3%; that for `Cc1cc(C(=O)CN2C(=O)C(=O)N(C3CCCC3)C2=O)c(C)n1-c1ccc(F)cc1`, -20.2%. With `Cc1nc2ccc(C(=O)Nc3ccc4nc[nH]c4c3)cc2[nH]1`, the “hERG current change (%, negative = inhibition) at 10uM” value stood at 1.95%. The same measure for `CC(=O)c1ccc(OCCCC(=O)N2CCN(S(=O)(=O)c3cccs3)CC2)cc1`: -43.4%. The same measure for `COc1ccccc1NS(=O)(=O)c1cn(C)cn1`: 18.3%; for `Cc1ccc(-c2cc(=O)c3cc(Cl)ccc3[nH]2)cc1`: 8.68%. On to `COc1ccc(-c2[nH]c(-c3ccccc3)nc2SCC(=O)NC2CCCC2)cc1`, for which the “hERG current change (%, negative = inhibition) at 10uM” value was -27.5%. As for `c1csc(-c2nc(-c3ccncc3)no2)c1`, the “hERG current change (%, negative = inhibition) at 10uM” value is listed as -1.91%. The result for `COc1ccc(-c2noc(C3CCCN(C(=O)c4ccccc4C)C3)n2)cc1` (centres unmarked) reads 8.96%; that for `CC(CCc1ccccc1)NC(=O)COC(=O)c1ccc(NC(N)=O)cc1` (centres unmarked), -6.05%. The same measure for `Cc1nc2c(c(-c3ccccc3)c1C#N)C(=O)c1ccccc1-2`: 13.8%; for `O=C(O)c1cccc2c3c([nH]c12)CCCC3`: 18%.

For the molecule `CCOC(=O)CC1(NC(=O)C2CCC(=O)N(Cc3ccccc3OC)C2)CCCCC1` (centres unmarked), the “hERG current change (%, negative = inhibition) at 10uM” value is reported as 9.56%. The same measure for `O=C(CSc1nc2ncc(Cl)cc2[nH]1)c1c[nH]c2ccccc12`: 18.1%; for `CCc1ccc(C2C(C#N)=C(N)OC3=C2C(=O)CCC3)s1` (centres unmarked): -6.73%; for `COc1ccccc1NC(=O)COC(=O)C1CCN(/C=C/C(=O)C(F)(F)F)CC1`: -49.6%. In the case of `O=c1c(C=Nc2cccnc2Cl)c(O)n(CCCCl)c(=O)n1C1CCCCC1`, the “hERG current change (%, negative = inhibition) at 10uM” value is -15.4%.

On to `CN(c1ccc(Cl)cc1)S(=O)(=O)c1nnc(NC(=O)C(C)(C)C)s1`, for which the “hERG current change (%, negative = inhibition) at 10uM” value was determined as 17.8%. The same measure for `Cc1cc(C)nc(NC(N)=NC2CCCCC2)n1`: -25.8%; for `CC(=O)N1CCc2cc(Br)cc(S(=O)(=O)N3CCCCC3)c21`: 7.18%; for `CCCNS(=O)(=O)c1cccc2cccnc12`: -6.32%. As for `CC(C)(C)C(=O)Nc1ccc(S(=O)(=O)N2CCC(c3nc4ccccc4[nH]3)CC2)cc1`, the “hERG current change (%, negative = inhibition) at 10uM” value is given as 12.7%. The same measure for `COc1ccccc1C(=O)COC(=O)CN1C(=O)NC2(CCCC2)C1=O`: 12.8%. The same measure for `Cc1cc(Nc2ccc(O)cc2)ccc1N`: 14.1%. The same measure for `Cc1ccc(S(=O)(=O)CCC(=O)N2CCN(c3ccc([N+](=O)[O-])cc3)CC2)cc1`: -70.8%; for `COc1cccc(NC(=O)[C@@H](NC(=O)N2CCn3c2nc2ccccc23)C(C)C)c1`: -0.0266%. Turning to `COc1ccc(NC(=O)N2CCCC(C(=O)Nc3cccc(C)c3C)C2)cc1` (centres unmarked), the “hERG current change (%, negative = inhibition) at 10uM” value is given as -9.89%. The result for `CC(=O)Nc1ccc(S(=O)(=O)N2CCN(C(=O)c3ncoc3-c3ccccc3F)CC2)cc1` reads 11.6%. The same measure for `COc1ccc(S(=O)(=O)N2c3cc(Cl)ccc3Oc3nc4ccccc4nc32)cc1`: 2.25%; for `COc1ccccc1Oc1cn[nH]c1-c1ccc(O)cc1O`: 2.81%. The result for `COC(C(=O)N/N=C(\C)c1ccc(O)cc1)c1ccccc1` (centres unmarked) reads 0.0978%; that for `CCN1C(=O)[C@H]2[C@@H](c3ccc(-c4ccc(C(C)=O)cc4)cc3)N3CCC[C@@]3(C(=O)OC)[C@H]2C1=O.O=C(O)C(F)(F)F`, -5.42%. Take `COc1ccccc1C1NC(c2ccccc2OC)C(C)C(=O)C1C` (centres unmarked): the “hERG current change (%, negative = inhibition) at 10uM” value is listed as -22.5%. The result for `COC(=O)C1=C(C(C)=O)C(c2ccc(C(=O)OC)cc2)n2nnnc2N1` (centres unmarked) reads 10.9%; that for `CC(=O)c1cccc(NC(=O)[C@@H](NC(N)=O)C(C)C)c1`, 33.1%. The result for `O=C(CCNC(=O)c1ccco1)Nc1ccc(OC(F)F)c(Cl)c1` reads -26.8%; that for `CCOC(=O)c1ccc(-n2c(CCC(=O)O)ccc2-c2cccs2)cc1`, 13.4%; that for `CC(=O)OCC(=O)c1c[nH]c2ccccc12`, 11.7%. The same measure for `Cn1c(=O)[nH]c(=O)c2c1nc(N1CCOCC1)n2CC(=O)c1ccccc1`: 9.68%. For the molecule `O=C(NNC(=S)Nc1ccccc1)c1cccc(Br)c1`, the “hERG current change (%, negative = inhibition) at 10uM” value worked out at 4.84%. The same measure for `COc1cc(/C=C/C(=O)O)cc(S(=O)(=O)Nc2ccc3cn[nH]c3c2)c1OC`: 9.74%; for `CC(C)c1ccc(NC(=O)COc2nnc(-c3cccs3)c(-c3cccs3)n2)cc1`: 15.6%; for `N#Cc1ccccc1CSC1=NCCS1`: 23%. The result for `COc1cc(/C=N/NC(=O)c2ccccn2)ccc1OC(=O)c1ccc(Br)cc1` reads 1.06%. Consider `COC(=O)[C@@H]1C[C@@H]2CC[C@@H](O)C[C@@H]2N1Cc1ccc(OC)cc1`, for which the “hERG current change (%, negative = inhibition) at 10uM” value came to 0.551%.

`Cc1c(Cl)cccc1NC(=S)NCCC(c1ccccc1)c1ccccc1`: the “hERG current change (%, negative = inhibition) at 10uM” value was determined as 7.85%.

As to `O=C1NC(c2ccccc2)=NC1(NS(=O)(=O)c1ccc(Cl)cc1)C(F)(F)F` (centres unmarked), the “hERG current change (%, negative = inhibition) at 10uM” value is listed as -2.26%. As for `CC(=O)Nc1ccc(S(=O)(=O)N2CCN(c3nc(NC4CCCC4)c4ccccc4n3)CC2)cc1`, the “hERG current change (%, negative = inhibition) at 10uM” value was -75.8%. The same measure for `COc1ncc(-c2ccc3c(c2)S(=O)(=O)c2cccc(C(=O)O)c2C3=O)cn1`: 12.6%. `COc1ccc(N2CCN(CCNC(=O)Nc3ccc(Cl)cc3)CC2)cc1`: the “hERG current change (%, negative = inhibition) at 10uM” value is reported as -60.7%.

Regarding `COc1ccc(-c2noc(COc3ccc(C)c(C)c3)n2)cc1OC`, the “hERG current change (%, negative = inhibition) at 10uM” value turned out to be 3.69%.

On to `Cc1nnc2sc(-c3ccc(-c4ccc(Cl)c(C(F)(F)F)c4)o3)nn12`, for which the “hERG current change (%, negative = inhibition) at 10uM” value is recorded as 3.66%.

As for `CCCOc1ccc(Oc2ccc(S(=O)(=O)N3CCN(C)CC3)cn2)cc1`, the “hERG current change (%, negative = inhibition) at 10uM” value was -10.9%. For the molecule `O=C(CSc1ccc2c(c1)OCCO2)Nc1ccc2c(c1)OCO2`, the “hERG current change (%, negative = inhibition) at 10uM” value is on record as 1.43%. The same measure for `CCC1CCCCN1CCCNC(=O)c1nn(C)c2c1CS(=O)(=O)c1ccccc1-2` (centres unmarked): -26%.

For the molecule `Cc1ccc(NC(=O)c2nc[nH]c2C(=O)N2CCCCC2)c(C(=O)c2ccccc2)c1`, the “hERG current change (%, negative = inhibition) at 10uM” value is listed as -15.3%.

`C=CCOC(=O)C1=C(C)NC(=O)NC1C1CC=CCC1` (centres unmarked): the “hERG current change (%, negative = inhibition) at 10uM” value was 3.8%.

In the case of `O=C(Nc1cccc(O)c1)c1noc2c1CCc1ccccc1-2`, the “hERG current change (%, negative = inhibition) at 10uM” value is -30%. On to `CCc1nccn1CCC(=O)N1CCCC(N2CCN(c3ccccc3F)CC2)C1` (centres unmarked), for which the “hERG current change (%, negative = inhibition) at 10uM” value is given as -16.8%. The same measure for `CCCn1nnnc1NC(=O)COc1ccc(Cl)c(C)c1`: 5.38%. In the case of `C=CCn1c(=NC(=O)c2cc(-c3cccs3)nc3ccccc23)sc2cc(S(N)(=O)=O)ccc21`, the “hERG current change (%, negative = inhibition) at 10uM” value was found to be 13.1%.

For the molecule `COc1ccccc1OCCn1cc(/C=C(\C#N)C(=O)NCc2cccs2)c2ccccc21`, the “hERG current change (%, negative = inhibition) at 10uM” value is recorded as 17.4%. The same measure for `CCN1C(=O)/C(=C2\C=Cc3ccccc3N2CC)OC1=S`: 13.5%. Consider `CCC1(c2ccccc2)NC(=O)N(CC(=O)Nc2ccccc2N2CCCCC2)C1=O` (centres unmarked), for which the “hERG current change (%, negative = inhibition) at 10uM” value was -15.8%. The result for `Cc1ccc(NCC(=O)N/N=C/c2ccc(C(=O)O)cc2)cc1` reads 10.5%. The same measure for `O=C(O)C1CC=CCC1C(=O)Nc1ccc2c(c1)OCCO2` (centres unmarked): 1.51%; for `Cn1nc(C(=O)Nc2nc3ccccc3[nH]2)c2ccccc2c1=O`: -47.1%. As to `O=C(NC1CCCC1)C(c1cccnc1)N(CCc1ccccc1)C(=O)c1ccco1` (centres unmarked), the “hERG current change (%, negative = inhibition) at 10uM” value is -69%.

With `O=C(O)c1cccc(Nc2cc(Cl)c3nonc3c2[N+](=O)[O-])c1`, the “hERG current change (%, negative = inhibition) at 10uM” value is recorded as 8.13%. The result for `Cc1ccc(NC(=O)CSc2nc3c(c(=O)n(C)c(=O)n3C)n2C)cc1` reads -16.1%.

Take `CC1CN(S(=O)(=O)c2cccc(C(=O)N(Cc3nnc(-c4ccccc4Cl)o3)C3CC3)c2)CC(C)O1` (centres unmarked): the “hERG current change (%, negative = inhibition) at 10uM” value is -40%. In the case of `O=C(CCC(=O)N1CCN(c2ccccn2)CC1)Nc1nnc(C(F)(F)F)s1`, the “hERG current change (%, negative = inhibition) at 10uM” value is on record as -1.22%. The same measure for `O=C(Nc1ccc(S(=O)(=O)NCC2CCCO2)cc1)c1cccc(F)c1` (centres unmarked): 6.73%; for `CCOC(=O)c1sc(=S)n(-c2ccc(OC)cc2)c1N`: 15.2%.

Turning to `C/C=C/Cn1c(SCc2ccc(Cl)cc2)nc2c1c(=O)[nH]c(=O)n2C`, the “hERG current change (%, negative = inhibition) at 10uM” value is recorded as -4.22%. The same measure for `COc1ccc(NC(C)C(=O)N/N=C/c2ccccc2OCc2cccc(Br)c2)cc1` (centres unmarked): 9.56%; for `Cc1cnc(C(=O)Oc2cccc(Cl)c2Cl)cn1`: 25.6%; for `Cc1noc(C)c1COc1ccccc1C(=O)N1CCN(S(=O)(=O)c2ccccc2F)CC1`: -19.2%.
